The campaign covered roughly 330,000 compounds. About 4,200 (1.3%) were called active. This list was built around the results that the source calls inconclusive (neither active nor inactive); the mix of calls is not that of the screen. Calls follow the shape of the dose curve; as a rule, active = well fitted activation curve with a large enough effect; inconclusive = small, poorly fitted or top-dose-only effect; inactive = no such curve, though single readings can be large or run the other way. Potencies of inconclusive entries are doubtful fits and often do not repeat.
Assay: qHTS screen for small molecules that induce genotoxicity in human embryonic kidney (HEK293T) cells expressing luciferase-tagged ELG1; also: nearly all actives have a fitted effect of over 60% in size
Conditions: HEK293T ELG1-luciferase reporter, luminescence, 16 h; series mostly up to 46 µM
Method in brief: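 DMSO vehicle served as control against compound-treated ELG1-luciferase HEK293T cells; exposure lasted 16 hr at 37 °C and 5% CO2, followed by ONE-Glo luminescence detection after 30 min.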
Potency is read from the fitted curve at half-maximal effect; tags tell the direction and shape of the fitted curve.

SMILES	Potency
CCc1ccc(C(=O)NCc2cccs2)s1	inconclusive: 16.4 µM [activator, partial curve, poor fit]
Cc1sc(NC(=O)c2ccco2)nc1-c1ccccc1	inconclusive: 1.84 µM [activator, full curve]
COc1cccc(N(C(=O)c2nc3nccc(C)n3n2)c2nc3ccccc3s2)c1	inconclusive: 4.11 µM [activator, partial curve]
CCCOc1ccc(/C=C2/C(=O)ON=C2C)cc1OCC	inconclusive: 18.3 µM [activator, partial curve, poor fit]
COc1cc(OC)cc(C(=O)N2CCC(C(=O)Nc3ccc4c(c3)OCCO4)CC2)c1	inactive
Cn1c(-c2ccc(F)cc2)cnc1SCC(=O)N1CCCc2ccccc21	inactive
COC(=O)c1ccc(-c2csc(NC(=O)c3ccc(S(=O)(=O)N4CCc5ccccc5C4)cc3)n2)cc1	inconclusive: 20.6 µM [activator, single point]
CC(=O)c1c(C)[nH]c(C(=O)COC(=O)Cc2ccccc2F)c1C	inactive
CCOC(=O)c1csc(NC(=O)CN2CCOCC2)n1	inactive
COc1ccc(NC(=O)c2ccc(NC(=O)CSc3nc(N)cc(=O)[nH]3)cc2)cc1	inconclusive: 29.1 µM [activator, partial curve, poor fit]
CC(C)(C)C1CCc2c(sc3nc(SCC(=O)O)nc(N)c23)C1 (stereo not given)	inconclusive: 13 µM [activator, partial curve, poor fit]
O=C(Nc1c2c(nn1-c1ccccc1)CS(=O)C2)c1ccco1 (stereo not given)	inactive
Nc1ccc(CCc2nc3ccccc3o2)cc1	active: 2.91 µM
CC(C)(C)c1ccc(C(=O)N2CCCN(C(=O)c3ccc(C(C)(C)C)cc3)CC2)cc1	inactive
C=CCc1cccc(/C=N/NC(=O)c2ccccc2OC)c1O	inconclusive: 29.1 µM [activator, single point]
Cc1cc(C)n2nc(C(=O)NCCc3ccccc3)nc2n1	active: 23.1 µM
Cc1cc(OC(C)C(=O)N(Cc2ccco2)C2CCS(=O)(=O)C2)ccc1Cl (stereo not given)	inactive
O=C(COc1ccc2c(c1)OCO2)Nc1ccccc1C(F)(F)F	inconclusive: 23.1 µM [activator, single point]
CCC(C)N(C(=O)CSc1nc(-c2ccccc2)cs1)C1CCS(=O)(=O)C1 (stereo not given)	inactive
CC(C)N(C(=O)Nc1ccc2nsnc2c1)C(C)C	inactive
Cc1cc(NC(=O)C(C)C)ncc1NC(=O)c1ccccn1	inconclusive: 14.6 µM [activator, partial curve]
Cc1ccc(S(=O)(=O)Cc2ccc(C(=O)NC3CCCCCC3)o2)cc1	inactive
FC(F)(F)c1nnc2ccc(Sc3ccccn3)nn12	inactive
c1ccc(-c2csc(N3CCOCC3)n2)cc1	active: 6.31 µM
Nc1cc(C(=O)OCC(=O)N2CCOCC2)ccc1Cl	inconclusive: 4.61 µM [activator, partial curve]

SMILES	Potency
CN(C)C(=O)NC(O)C(Cl)Cl (stereo not given)	inactive
Cc1nnsc1C(=O)N/N=C/c1ccc2ccccc2c1O	inactive
CCCc1cc(C(=O)Nc2ccc(Cl)cn2)cs1	active: 2.31 µM
Nc1c(Cl)ncnc1N/N=C/c1ccc2ccccc2n1	inconclusive: 6.51 µM [activator, single point]
CN(CC1CCCO1)S(=O)(=O)c1ccc(C(=O)Nc2nc3cc4c(cc3s2)OCO4)cc1 (stereo not given)	inactive
CCc1cc(C(=O)Nc2ccc(C)cc2Br)cs1	inconclusive: 5.17 µM [activator, partial curve]
COc1cccc(/C=N/Nc2ncnc(N)c2[N+](=O)[O-])c1OC	inconclusive: 1 µM [activator, full curve, poor fit]
Cc1ccc2nc(SCC(=O)Nc3ccccc3N3CCOCC3)c(C#N)cc2c1	inactive
C=CCSc1nnc(-c2ccc([N+](=O)[O-])cc2)o1	inconclusive: 16.4 µM [activator, partial curve]
N/C(=N\OC(=O)COc1ccc2ccccc2c1Br)c1ccccn1	inconclusive: 23.1 µM [activator, single point]
O=C(c1cc2c(=O)n3ccccc3nc2s1)N1CCN(c2cccc(Cl)c2)CC1	inconclusive: 2.24 µM [activator, partial curve, poor fit]
COC(=O)C1=C(Nc2ccccc2NC(=O)c2ccccc2C(=O)O)CSC1	inconclusive: 18.3 µM [activator, single point]
N#Cc1c(SCC(=O)Nc2nccs2)nc2c(c1-c1ccco1)CCCC2	inconclusive: 14.6 µM [activator, partial curve, poor fit]
O=C(Nc1ccc2c(c1)OCCO2)c1ccccc1	active: 3.66 µM
NC(=O)NOCc1ccc(Cl)cc1Cl	inactive
CCOC(=O)c1cc2c(s1)-c1c(C)cccc1OC2	inconclusive: 20.6 µM [activator, single point]
CCc1sc(C(=O)N(CCCOC)c2c(N)n(CC(C)C)c(=O)[nH]c2=O)cc1C	inactive
NC(=O)Nc1ccc(C(=O)OCC(=O)Nc2cccc(S(=O)(=O)NC3=NCCCCC3)c2)cc1	inactive
CN(Cc1cccs1)C(=O)Cc1csc(-c2ccccc2)n1	inconclusive: 16.4 µM [activator, single point]
CSc1ccc(N2C(=O)NC3(CCCCC3)C2=O)cc1	inconclusive: 8.2 µM [activator, partial curve, poor fit]
CNc1ncc(C(=O)c2ccccc2)s1	inconclusive: 14.6 µM [activator, partial curve, poor fit]
Cc1ccc(Nc2nc(NCc3ccco3)c3ccccc3n2)cc1	inactive
Cc1ccc(/C=N/N2CCN(c3ccccc3)CC2)cc1	inconclusive: 10.3 µM [activator, partial curve, poor fit]
CN=c1scc(-c2ccc([N+](=O)[O-])cc2)n1/N=C/c1ccco1	inconclusive: 1.3 µM [activator, full curve]
O=C1N/C(=C/c2ccsc2)C(=O)N1c1ccccc1	inconclusive: 18.3 µM [activator, partial curve, poor fit]

SMILES	Potency
CCCCCCCC(=O)NNC(=O)Cc1ccccc1	inactive
CC1(C)Cc2c(sc(NC(=O)c3ccc(C(=O)c4ccccc4)cc3)c2C(N)=O)C(C)(C)N1	inactive
Cc1cc2nc3n(c2cc1C)CC1CC(C(=O)NCC2CC2)N(C)C31 (stereo not given)	inactive
CC(=O)Nc1ccc2nc(-c3ccc(Br)o3)[nH]c2c1	inconclusive: 11.6 µM [activator, partial curve, poor fit]
CCOc1ccc(/C=C/C(=O)c2ccccc2)cc1OC	inconclusive: 18.4 µM [activator, single point]
COC(=O)c1ccc(COC(=O)C(CCS(C)(=O)=O)N2C(=O)c3ccccc3C2=O)cc1 (stereo not given)	inactive
COc1ccc(CCNC(=O)c2ccc(Cl)c(S(=O)(=O)N(C)c3ccccc3)c2)cc1	inactive
CC(C)c1ccc(CN(C(=O)c2cc3ccccc3oc2=O)C2CCS(=O)(=O)C2)cc1 (stereo not given)	inconclusive: 20.6 µM [activator, partial curve, poor fit]
O=C(CSc1ccccc1)OCC(=O)N1CCN(C(=O)c2ccco2)CC1	inactive
CN(C)CCCN(C(=O)C1=COCCO1)c1nc2ccc(Br)cc2s1	inconclusive: 29.1 µM [activator, partial curve, poor fit]
CC(=O)NCCc1ccc(C(=O)COC(=O)c2cccn2C)cc1	inconclusive: 16.4 µM [activator, partial curve, poor fit]
CCN1C(=O)[C@H]2[C@@H](c3ccc(C)cc3)N3C(=O)N(c4ccccc4)C(=O)[C@@]3(CC)[C@H]2C1=O	inconclusive: 16.4 µM [activator, partial curve, poor fit]
Cc1cc(-c2nnc3n2N=C(c2ccc(F)cc2)CS3)n[nH]1	inconclusive: 23.1 µM [activator, single point]
COC(=O)c1sc(NC(=O)c2cc(C)on2)nc1C	inconclusive: 13 µM [activator, partial curve, poor fit]
Cc1cc(NC(=O)c2ccco2)ccc1NC(=O)c1ccco1	inconclusive: 16.4 µM [activator, partial curve, poor fit]
O=C(Nc1ccc2c(c1)OCO2)c1cccc(Cl)c1	inconclusive: 10.3 µM [activator, partial curve, poor fit]
O=C(NC1CC1)c1sc2cc([N+](=O)[O-])ccc2c1Cl	inactive
COc1ccc2c(C)nc(Nc3nc(C)c(C)c(=O)[nH]3)nc2c1	inconclusive: 16.4 µM [activator, single point]
COc1ccc(-c2nc(C#N)c(NCC3CCCO3)o2)cc1OC (stereo not given)	inconclusive: 18.4 µM [activator, partial curve]
COc1ccc(/C=N/Nc2ncc(Br)cn2)c(OC)c1	active: 7.3 µM
O=C(Nc1ccc(Br)cc1)NC1CCCCCCC1	inconclusive: 4.61 µM [activator, single point]
CSc1ccc(CC(=O)N2CCC(n3nccc3NC(=O)C3CC3)CC2)cc1	inconclusive: 20.6 µM [activator, partial curve]
O=C(Nc1nnc(CC2=CCCCC2)s1)Nc1ccccc1F	inconclusive: 14.6 µM [activator, partial curve, poor fit]
CC(C)=NNc1nc2sc3c(c2c(=O)[nH]1)CC(C)(C)OC3	inactive
COc1ccc(C(=O)c2ccc(Cl)cc2)cc1	active: 20.6 µM

Source: PubChem BioAssay AID504466 (National Center for Advancing Translational Sciences (NCATS), 2011)
